One block for each binder: values may come before it.
Key:
[1] = target: T1, recombinant human complement factor H (CFH), isolated from moss (human, UniProt P08603 19-1231); experiment: SPR; kinetic
T1 chain: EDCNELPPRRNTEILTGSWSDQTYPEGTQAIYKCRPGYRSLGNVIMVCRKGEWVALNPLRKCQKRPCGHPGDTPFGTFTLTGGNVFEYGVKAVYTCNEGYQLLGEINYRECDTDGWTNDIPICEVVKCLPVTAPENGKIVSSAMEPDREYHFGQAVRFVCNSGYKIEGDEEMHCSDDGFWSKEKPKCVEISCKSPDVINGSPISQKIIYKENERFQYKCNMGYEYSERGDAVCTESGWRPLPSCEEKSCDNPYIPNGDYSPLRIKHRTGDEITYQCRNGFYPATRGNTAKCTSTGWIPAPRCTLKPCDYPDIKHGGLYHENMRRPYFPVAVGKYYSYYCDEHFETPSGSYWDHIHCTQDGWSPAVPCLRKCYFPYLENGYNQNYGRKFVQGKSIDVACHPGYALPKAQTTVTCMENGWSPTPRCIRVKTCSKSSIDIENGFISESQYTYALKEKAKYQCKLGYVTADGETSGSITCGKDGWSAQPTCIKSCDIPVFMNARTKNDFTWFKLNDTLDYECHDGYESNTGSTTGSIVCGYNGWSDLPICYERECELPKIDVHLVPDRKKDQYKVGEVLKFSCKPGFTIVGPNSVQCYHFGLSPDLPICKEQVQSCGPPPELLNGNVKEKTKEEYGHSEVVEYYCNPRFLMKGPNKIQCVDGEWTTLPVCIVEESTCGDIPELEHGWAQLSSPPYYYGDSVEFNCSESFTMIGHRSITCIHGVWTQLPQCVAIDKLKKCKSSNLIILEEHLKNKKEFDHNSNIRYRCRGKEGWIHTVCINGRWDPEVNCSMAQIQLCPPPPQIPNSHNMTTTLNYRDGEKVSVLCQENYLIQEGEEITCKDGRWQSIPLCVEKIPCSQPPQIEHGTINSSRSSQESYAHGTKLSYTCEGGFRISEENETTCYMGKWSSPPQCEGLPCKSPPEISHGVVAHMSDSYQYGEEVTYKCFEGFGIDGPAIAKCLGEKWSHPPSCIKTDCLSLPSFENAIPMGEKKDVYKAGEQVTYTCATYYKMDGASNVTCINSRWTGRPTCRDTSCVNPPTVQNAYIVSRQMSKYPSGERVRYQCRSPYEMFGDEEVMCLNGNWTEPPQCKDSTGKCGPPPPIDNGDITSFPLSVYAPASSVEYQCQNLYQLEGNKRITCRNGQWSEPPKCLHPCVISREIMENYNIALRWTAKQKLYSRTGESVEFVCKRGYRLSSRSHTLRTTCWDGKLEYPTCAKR

[2] = target: T1, recombinant human complement factor H …; experiment: BLI; steady state

Kd [1]: 124 nM
B1: 209275 (protein)
chain: IAARFDHAQWAAELEIKELPNLTYEQRKAFRISLYDDPSVSLEVLGEAQKLNDSQAPK

Kd [2]: 66 nM
B2: 209466 (protein)
chain: NAADKDFAQESAEYEILMLPNLTLDQAYSFILSLKSDPSVSKEVLGEAQKLNDSQAPK

From patent US20230416313A1 (published 2023)
